# Measured values from article PMC4336329 (PLoS ONE, 2015).
# Hit rate of the full screen: of about 310,000 compounds, about 14,000 (4.5%) showed an effect of 50% or more. Effects have a minus sign here. The list shows a part of the results.
# Target: human ether-à-go-go-related gene (hERG) potassium channel (human, UniProt Q12809)
# Experiment: primary screen, population patch clamp on CHO cells stably expressing hERG
# 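Also: peak tail current of the secondary pulse compared with the same well before compound.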
# human ether-à-go-go-related gene (hERG) potassium channel, sequence (Q12809 whole entry, looked up): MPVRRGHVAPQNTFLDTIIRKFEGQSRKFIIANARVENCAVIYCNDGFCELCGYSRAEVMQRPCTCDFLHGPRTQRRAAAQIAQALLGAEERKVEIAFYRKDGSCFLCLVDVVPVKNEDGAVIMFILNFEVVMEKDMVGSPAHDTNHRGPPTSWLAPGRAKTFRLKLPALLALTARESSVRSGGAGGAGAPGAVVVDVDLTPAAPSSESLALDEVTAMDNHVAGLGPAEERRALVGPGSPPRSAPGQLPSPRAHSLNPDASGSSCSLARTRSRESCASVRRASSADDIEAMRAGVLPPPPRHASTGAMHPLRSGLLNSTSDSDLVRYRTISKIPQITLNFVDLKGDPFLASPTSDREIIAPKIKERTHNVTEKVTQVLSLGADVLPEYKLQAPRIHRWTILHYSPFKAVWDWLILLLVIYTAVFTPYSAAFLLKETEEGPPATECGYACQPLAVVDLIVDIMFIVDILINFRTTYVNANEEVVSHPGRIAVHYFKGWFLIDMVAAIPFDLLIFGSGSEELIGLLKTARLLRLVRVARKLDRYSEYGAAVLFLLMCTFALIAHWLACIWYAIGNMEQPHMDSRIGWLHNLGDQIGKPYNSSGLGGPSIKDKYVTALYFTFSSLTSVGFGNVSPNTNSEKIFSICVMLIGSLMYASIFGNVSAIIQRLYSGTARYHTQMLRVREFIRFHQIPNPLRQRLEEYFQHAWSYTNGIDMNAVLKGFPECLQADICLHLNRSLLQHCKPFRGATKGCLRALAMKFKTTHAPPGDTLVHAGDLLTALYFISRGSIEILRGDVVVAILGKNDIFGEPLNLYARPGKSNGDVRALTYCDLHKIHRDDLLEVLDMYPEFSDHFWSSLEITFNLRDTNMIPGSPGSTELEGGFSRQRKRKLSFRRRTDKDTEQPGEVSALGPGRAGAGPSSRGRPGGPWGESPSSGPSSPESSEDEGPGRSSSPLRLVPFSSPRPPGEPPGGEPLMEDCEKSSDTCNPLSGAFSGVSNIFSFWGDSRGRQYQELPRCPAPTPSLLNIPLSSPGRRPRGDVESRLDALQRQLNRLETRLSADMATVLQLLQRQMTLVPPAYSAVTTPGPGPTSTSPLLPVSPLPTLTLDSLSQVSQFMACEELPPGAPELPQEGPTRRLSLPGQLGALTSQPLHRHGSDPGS
row,SMILES,"hERG current change (%, negative = inhibition) at 10uM [%]"
1,CCOc1ccc(-c2cc(C)[n+](CCN(CC)CC)c(-c3ccc(OCC)cc3)c2)cc1.[O-][Cl+3]([O-])([O-])[O-],-79.3
2,COC(=O)c1ccccc1NC(=O)C(=O)NCc1ccncc1,-6.14
3,Nc1ccccc1SCC(O)Cn1ccc2ccccc21 (centres unmarked),-4.33
4,CC(=O)N1N=C(c2ccc(Br)cc2)OC1(C)CC(=O)Nc1ccccc1 (centres unmarked),-1.01
5,Cc1ccc(-c2nc(COC(=O)C3=NN(c4ccccc4)C(=O)CC3)cs2)cc1,-32.2
6,CN(C)c1cc(NC(=O)CNC(C)(C)CC(C)(C)C)c2ccccc2n1.O=C(O)C(=O)O,-69.9
7,O=[N+]([O-])c1cccc(-c2nnc3n2CCCCC3)c1,24.7
8,CC(=O)/C(=N/Nc1ccccc1)N1CCOCC1,-13.8
9,CCOc1ccccc1N1CCN(C(=O)CC(C)C)CC1,4.57
10,CCn1cc(C(=O)N2CCCC(CO)(Cc3ccccc3C)C2)cn1 (centres unmarked),11.7
11,O=C(NCCc1ccccc1)c1c(F)c(F)c(F)c(F)c1F,-9.42
12,COc1ccc(C(=O)NC(=S)Nc2ccccc2N2CCN(S(C)(=O)=O)CC2)cc1OC,-5.71
13,COC(=O)c1cc(S(=O)(=O)N2CCN(c3ccc(C(C)=O)cc3)CC2)c[nH]1,7.76
14,O=C(O)CCC(=O)Nc1ccc(-c2csc(Nc3cccc4ccccc34)n2)cc1,8.77
15,CC(C)N(C)C1CCN(S(=O)(=O)c2ccc(-c3ccc(=O)[nH]n3)s2)CC1,-7.84
16,O=C(Nc1csc([N+](=O)[O-])c1)Nc1ccccc1Cl,20
17,Cc1cccc(/C=N/n2c(-c3ccncc3)n[nH]c2=S)c1,13.1
18,Cc1ccc(S(=O)(=O)c2cc3ccccc3oc2=Nc2ccc3c(c2)OCCO3)cc1,6.71
19,Cc1nc2ncnn2c(N2CCCC(C(=O)Nc3ccc4c(c3)CCC4)C2)c1C (centres unmarked),-53
20,CCC(=O)Nc1cc(C(=O)OC(C(=O)c2ccc(C)c(C)c2)c2ccccc2)ccc1C (centres unmarked),-7.01
21,CS(=O)(=O)N(Cc1ccccc1)c1ccc(C(=O)NCC2CCCO2)cc1 (centres unmarked),0.814
22,CC(C)CCNC(=O)CN(C(=O)CCC(=O)Nc1ccccn1)c1ccc(F)c(Cl)c1,11.1

row,SMILES,"hERG current change (%, negative = inhibition) at 10uM [%]"
1,Cl.c1ccc(COc2ccccc2CNCc2cccnc2)cc1,-8.89
2,COc1cc([N+](=O)[O-])cc([N+](=O)[O-])c1NC(=O)N1CCOCC1,4.88
3,O=C(Cn1cc([N+](=O)[O-])cn1)N1N=C(C(F)F)CC1(O)C(F)F (centres unmarked),-4.71
4,CC(C)c1ccc2[nH]c3c(c2c1)CCC/C3=N\NC(=O)c1ccncc1,5.62
5,CN1CCN(C2=C(NS(=O)(=O)c3cccs3)C(=O)c3ccccc3C2=O)CC1,-18.8
6,CC1(C)c2ccccc2N(CC(N)=O)C12C=Cc1ccccc1O2 (centres unmarked),-26
7,CCn1c(SCC(=O)N2CCc3ccccc32)nnc1-c1c[nH]c2ccccc12,11.8
8,Cc1cc(N2C(=O)C3C4CCC(C4)C3C2=O)no1 (centres unmarked),15.8
9,Cc1nn(-c2ccc(F)cc2)c(Cl)c1/C=N/NC(=O)c1cccs1,10.4
10,COc1cc2c(cc1OC)C(c1ccc(C)cc1)NC(=O)C2 (centres unmarked),19.9
11,COc1cc2[nH]c(=O)n(CCCCCC(=O)N3CCN(c4ccccn4)CC3)c(=O)c2cc1OC,-13.6
12,c1ccc(Sc2ncccn2)nc1,12.2
13,CC1(C)Cc2c(c(N3CCOCC3)nc3sc4c(NN)ncnc4c23)CS1,-5.43
14,CCCCn1c(N)c(N(CCC(C)C)C(=O)CCCc2nc3ccccc3s2)c(=O)[nH]c1=O,10.2
15,CC(/C=C/c1ccco1)=N\NC(=O)c1cc(Cl)ccc1O,12.1
16,COc1ccc(-c2cc(C(F)(F)F)nc(-n3ccnc3C)n2)cc1,-7.53
17,Cc1ccc(C(=O)N/C(=C\c2cccs2)C(=O)NCCc2c[nH]c3ccccc23)cc1,-16.2
18,COCCOC(=O)C1=C(N)OC2=C(C(=O)CCC2)C1c1cccnc1 (centres unmarked),-3.23
19,COC(=O)Cn1c(N)[n+](Cc2ccccc2)c2ccccc21.[Br-],-9.48
20,COc1cc(NC(=O)NC2Cc3ccccc3C2)cc(OC)c1,8.22
21,CCN(CC)S(=O)(=O)c1c(OC)cc(C)c(Cl)c1C,-12.5
22,CCN1CCN(/C=N/c2nc(C)cs2)CC1,1.97
